From the supplement of paper PMC11417369
± gives the standard deviation of the averaged measurements. The list shows a part of the results.

tested on: PfAP2-G AP2 domain (GST-tagged); experiment: gcPBM binding intensity (ln(normalized median fluorescence intensity)); higher = stronger DNA binding
Method in brief: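 Each value is the highest Masliner-normalised natural-log median intensity across replicate spots of either orientation of a probe. The probes were primer-extended double-stranded 36-bp intergenic genomic sequences on an Agilent 4 × 180k array, alongside negative controls, exposed for 1 h to GST-tagged P. falciparum DNA-binding domains expressed in E. coli. Bound protein was picked up with Alexa488 anti-GST antibody and scanned at 488 nm.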

Q: With “TTTAAATATATATATTGTACAAAAAAAAATAATAAA [XGTACX_site4759]” as the sequence, how does the “gcPBM binding intensity (ln)” value read?
A: Its value is 10.9 ± 0.41.

Q: Which “gcPBM binding intensity (ln)” value does the source give for “ATAAAATTTATGACTTGTACATGTAAATAAAATATA [XGTACX_site762]” here?
A: Its value is 11.1 ± 0.73.

Q: With “TGTAGAACTCAATATTGTACATTATATAAAATGGGA [XGTACX_site3857]” as the sequence, how does the “gcPBM binding intensity (ln)” value read?
A: Its value is 10.8 ± 0.45.

Q: Which “gcPBM binding intensity (ln)” value does the source give for “TTCCCTATCTTTTCAGTGCATTTTGTTTCCTACCTT [GTGCAC_site9813]” here?
A: The value was 10.2 ± 0.11.

Q: “CTTCTTGTAAAATTTGCATGTAATTAAAAGAGAATG [TGCATGCA_site484]” was tested. Which “gcPBM binding intensity (ln)” value did it give?
A: The value was 10.2 ± 0.3.

Q: How did the “gcPBM binding intensity (ln)” value turn out when “GCCTTTTAGTATTTCACACACGTAAATGAGTATATC [CACACA_site4748]” was run?
A: Its value is 10.2 ± 0.18.

Q: For “AAAAAATTAAAAATCACACATAAATATATATAAAAA [CACACA_site4192]”, which “gcPBM binding intensity (ln)” value is on record?
A: Its value is 9.64 ± 0.27.

Q: Which “gcPBM binding intensity (ln)” value does the source give for “TAATGAAGCTTATGCACACGTTCATTATTTATATTA [CACACA_site3219]” here?
A: Its value is 9.98 ± 0.028.

Q: With “ATAAAGAATATAAATACACACTTAAATATAGATTAT [CACACA_site7804]” as the sequence, how does the “gcPBM binding intensity (ln)” value read?
A: Its value is 9.79 ± 0.14.

Q: Which “gcPBM binding intensity (ln)” value does the source give for “ATTGGTTCCCCTCTCTTTTCAATATATTTTTTTTTT [XGTACX_negctrl_site259]” here?
A: Its value is 10.2 ± 0.27.

Q: How did the “gcPBM binding intensity (ln)” value turn out when “GATATAGGGCGTATGTTAATCGTGAAAGAGTGTCTT [GTGCAC_negctrl_site102]” was run?
A: The value was 10.2 ± 0.14.

Q: “TTCAAATGATTTATGTGTACATAAAATTATTTTTTA [XGTACX_site107]” was tested. Which “gcPBM binding intensity (ln)” value did it give?
A: The value was 11.5 ± 1.1.

Q: “ATATTACAGTACAATACATGCATATGGAAAAAAAAA [TGCATGCA_site72]” was tested. Which “gcPBM binding intensity (ln)” value did it give?
A: The value was 11 ± 0.79.

Q: How did the “gcPBM binding intensity (ln)” value turn out when “AATAAATATATATTCACACACAAACATATATATATA [CACACA_site4023]” was run?
A: Its value is 10.1 ± 0.45.

Q: Which “gcPBM binding intensity (ln)” value does the source give for “TTTATAATTTATATCACACACATATATATATAGTAA [CACACA_site8]” here?
A: Its value is 9.88 ± 0.12.

Q: Which “gcPBM binding intensity (ln)” value does the source give for “AAATAAATAAATAAATAAACAAATATGTATAAATGG [XGTACX_negctrl_site153]” here?
A: Its value is 9.92 ± 0.014.

Q: How did the “gcPBM binding intensity (ln)” value turn out when “AGGTACTTTTTTAAAACACACATATAATAAATACAC [CACACA_site4730]” was run?
A: The value was 11.3 ± 1.1.

Q: With “CATTTTGTTTTAAAGTGTACATTATGTAATATAAAA [XGTACX_site647]” as the sequence, how does the “gcPBM binding intensity (ln)” value read?
A: The value was 11.3 ± 0.82.

Q: How did the “gcPBM binding intensity (ln)” value turn out when “ATTTATATTACCCTTGCATGTAGGTGCAATTTTTTT [TGCATGCA_site757]” was run?
A: The value was 10.2 ± 0.19.

Q: Which “gcPBM binding intensity (ln)” value does the source give for “TTTTTATAGGTAAAAACACACGCTAAAAATAATTAA [CACACA_site3731]” here?
A: Its value is 10.2 ± 0.13.

Q: Which “gcPBM binding intensity (ln)” value does the source give for “TTTTTTAGATTACATAAATATAAATATAAATATATA [GTGCAC_negctrl_site459]” here?
A: Its value is 9.485 ± 0.092.

Q: “ATAAGATTAAACATTGCACACAGAAATATATTTTCT [CACACA_site8743]” was tested. Which “gcPBM binding intensity (ln)” value did it give?
A: Its value is 9.93 ± 0.15.

Q: With “CCTATATAATATATTTGTACTTAATAATTAAAGTGT [XGTACX_site5151]” as the sequence, how does the “gcPBM binding intensity (ln)” value read?
A: The value was 11.1 ± 0.69.

Q: “TATATATATATATATTGTACATATGTAACCTTTTAA [XGTACX_site3914]” was tested. Which “gcPBM binding intensity (ln)” value did it give?
A: Its value is 10.9 ± 0.72.

Q: How did the “gcPBM binding intensity (ln)” value turn out when “TATCAAAATTAGTATACACACAAAATTAATCAAATA [CACACA_site7117]” was run?
A: Its value is 10.1 ± 0.28.

Q: “TCAACTATCAATATAGTGCATTTTTTTTGGAAAACC [GTGCAC_site9927]” was tested. Which “gcPBM binding intensity (ln)” value did it give?
A: Its value is 9.985 ± 0.049.

Q: With “TTTTTTTTTTTTTGTAGTACATTATGTATATTTTTA [XGTACX_site7810]” as the sequence, how does the “gcPBM binding intensity (ln)” value read?
A: The value was 11.3 ± 1.

Q: How did the “gcPBM binding intensity (ln)” value turn out when “TTAATAAGAGAGCAATAGGTGGACTGTTTCTTTTAT [CACACA_negctrl_site1239]” was run?
A: Its value is 10.8 ± 0.6.

Q: Which “gcPBM binding intensity (ln)” value does the source give for “GTTAAAATAATATGGTGTACAAATATATAAGTTCAT [XGTACX_site3262]” here?
A: Its value is 11.4 ± 0.79.

Q: With “TAAAATAAAAATTTATGTACACATAAAAAAACAAAA [XGTACX_site1112]” as the sequence, how does the “gcPBM binding intensity (ln)” value read?
A: The value was 11.5 ± 0.94.

Q: “GAGAGTACCTATATTGCATGCAGACTTTTTAAATAT [TGCATGCA_site564]” was tested. Which “gcPBM binding intensity (ln)” value did it give?
A: Its value is 11 ± 0.55.

Q: “ATATATATATATAAAAGTACTTATTTTTATTTACAT [XGTACX_site4299]” was tested. Which “gcPBM binding intensity (ln)” value did it give?
A: The value was 11.2 ± 0.71.

Q: With “GATACTCTCTTTTAATGTACAAAATTTTAAAAATTA [XGTACX_site1781]” as the sequence, how does the “gcPBM binding intensity (ln)” value read?
A: Its value is 10.8 ± 0.52.

Q: How did the “gcPBM binding intensity (ln)” value turn out when “TATAAAAAAAAAAAAAGTACTTAAATATAAATAAAT [XGTACX_site5052]” was run?
A: The value was 11.4 ± 0.8.

Q: “TGTTTATACAATATTTGTACATATATTTTTATTTTT [XGTACX_site4104]” was tested. Which “gcPBM binding intensity (ln)” value did it give?
A: The value was 10.9 ± 0.59.

Q: How did the “gcPBM binding intensity (ln)” value turn out when “TTTTAAATAAAAAAATTAAATTAAAATATATAAAAA [XGTACX_negctrl_site490]” was run?
A: The value was 9.69 ± 0.25.

Q: “CATTTTTACAACGTTGCACACTTCAAAAGGTTTACA [CACACA_site2760]” was tested. Which “gcPBM binding intensity (ln)” value did it give?
A: The value was 10.3 ± 0.16.

Q: “GTTCCATGAGTATATACATGCATATATCTAGTTTAT [TGCATGCA_site388]” was tested. Which “gcPBM binding intensity (ln)” value did it give?
A: The value was 10.1 ± 0.035.

Q: Which “gcPBM binding intensity (ln)” value does the source give for “TACCCTCGTATATATATACACACTAAAATACAGACA [CACACA_site4154]” here?
A: Its value is 10.2 ± 0.28.

Q: “ATTCATTCATATGTTACACACACACCCACCCATAAA [CACACA_site9066]” was tested. Which “gcPBM binding intensity (ln)” value did it give?
A: The value was 10.5 ± 0.34.

Q: How did the “gcPBM binding intensity (ln)” value turn out when “AATTAAAAAAAATACACACACACATACCCATATATA [CACACA_site5767]” was run?
A: The value was 10.2 ± 0.16.

Q: Which “gcPBM binding intensity (ln)” value does the source give for “AATGATATATTATAAACACACAAAGATGAATATATA [CACACA_site2818]” here?
A: Its value is 9.77 ± 0.22.

Q: With “TATGTACAGACATATACACACCTCTATAATCTATAT [CACACA_site6482]” as the sequence, how does the “gcPBM binding intensity (ln)” value read?
A: The value was 10.8 ± 0.63.

Q: Which “gcPBM binding intensity (ln)” value does the source give for “CTAAAGTAAATTTAAGCACACACAACGAATTTTTAT [CACACA_site8599]” here?
A: Its value is 10.15 ± 0.035.

Q: Which “gcPBM binding intensity (ln)” value does the source give for “AATTTATGTTTTAAAAGTACTTTTCTAATTTATAAA [XGTACX_site1593]” here?
A: The value was 11.1 ± 0.72.
